The values that follow come from the supplement of paper PMC9446081.

About 220 (0.56%) of roughly 39,000 compounds showed activity. This is one part of the list.
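Further: static incubation at 37 °C against the wild-type strain, values averaged over two biological replicates.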

In the assay the test system is Escherichia coli K-12 BW25113. Nature of the assay: relative growth (OD600 normalised to plate interquartile mean) (fraction); higher = less growth inhibition, active = 0.2 or less. The settings on record: 50 µM; LB; incubation time: overnight (16-24 h).
Take `C[C@@H]1CN([C@@H](C)CO)C(=O)c2cc(C#Cc3ccncc3)cnc2O[C@@H]1CN(C)C(=O)c1ccccc1F`: the relative growth was inactive: 0.996.

On to `CC(=O)O[C@@H]1[C@@H](OC(C)=O)[C@@H]2OC[C@@H](O2)[C@H]1OC(C)=O`, for which the relative growth is inactive: 0.987.

As for `C[C@@H]1CCCCO[C@@H](CN(C)C(=O)Nc2ccc(F)cc2)[C@@H](C)CN([C@@H](C)CO)C(=O)c2cc(NC(=O)CCCN(C)C)ccc2O1`, the relative growth is inactive: 0.989.

Consider `C[C@@H]1CN([C@@H](C)CO)C(=O)c2cccc(NC(=O)C3CCCCC3)c2O[C@@H]1CN(C)Cc1ccc(C(F)(F)F)cc1`, for which the relative growth is inactive: 0.969.

For the compound `CN1CCN(C(=O)C[C@@H]2CC[C@@H]3[C@H](COC[C@@H](O)CN3C(=O)Nc3cc(Cl)cc(Cl)c3)O2)CC1`, the relative growth is inactive: 0.948.

On to `C[C@@H]1CN([C@H](C)CO)C(=O)c2cc(NC(=O)NC3CCCCC3)ccc2O[C@@H](C)CCCCO[C@H]1CN(C)C(=O)Nc1ccc2c(c1)OCO2`, for which the relative growth is inactive: 1.

Consider `COc1ccc(S(=O)(=O)N2C[C@@H](O)COC[C@@H]3O[C@@H](CC(=O)NCCN4CCCCC4)CC[C@H]32)cc1`, for which the relative growth was inactive: 0.942.

Turning to `Cc1ccc(S(=O)(=O)Nc2ccc3c(c2)C(=O)N([C@H](C)CO)C[C@H](C)[C@@H](CN(C)CC2CCCCC2)OCCCC[C@H](C)O3)cc1`, the relative growth is inactive: 1.02.

Turning to `CCC(=O)N(C)C[C@H]1Oc2ncc(C#C[C@@H](C)O)cc2C(=O)N([C@H](C)CO)C[C@@H]1C`, the relative growth is inactive: 1.01.

For the compound `Cn1cnc(S(=O)(=O)N2C[C@@H](O)COC[C@@H]3O[C@H](CC(=O)NCc4ccc(F)cc4)CC[C@H]32)c1`, the relative growth was inactive: 0.987.

Turning to `C[C@@H]1CCCCO[C@@H](CN(C)Cc2ccc(C(=O)Nc3ccccc3N)cc2)[C@@H](C)CN([C@H](C)CO)C(=O)c2cc(NC(=O)Cc3ccccc3)ccc2O1`, the relative growth is inactive: 1.01.

For `O=C(Nc1cc(Cl)ccc1Cl)c1cc(Br)ccc1NS(=O)(=O)c1ccc(Cl)c([N+](=O)[O-])c1`, the relative growth was inactive: 0.756.

Consider `C[C@H](CO)N1C[C@H](C)[C@H](CN(C)C(=O)Cc2ccccn2)Oc2ncc(-c3ccc(F)cc3)cc2C1=O`, for which the relative growth was inactive: 0.983.

With `C[C@H]1CN([C@@H](C)CO)C(=O)c2cccc(NC(=O)c3nc4ccccc4s3)c2O[C@H]1CN(C)Cc1ccc(Cl)c(Cl)c1`, the relative growth was inactive: 1.01.

For the compound `CC(C)NC(=O)Nc1ccc2c(c1)C(=O)N([C@H](C)CO)C[C@H](C)[C@@H](CN(C)S(C)(=O)=O)OCCCC[C@H](C)O2`, the relative growth is inactive: 1.

In the case of `Cc1ccc(S(=O)(=O)Nc2ccc3c(c2)C(=O)N([C@H](C)CO)C[C@H](C)[C@H](CN(C)Cc2ccncc2)OCCCC[C@@H](C)O3)cc1`, the relative growth was inactive: 0.986.

For the compound `C[C@@H]1CN([C@H](C)CO)C(=O)c2cc(Br)cnc2O[C@@H]1CN(C)C(=O)Nc1cccc(F)c1`, the relative growth was inactive: 0.996.

As for `C[C@@H]1CCCCO[C@H](CN(C)Cc2ccc3c(c2)OCO3)[C@H](C)CN([C@H](C)CO)C(=O)c2cc(NC(=O)Nc3ccccc3)ccc2O1`, the relative growth was inactive: 1.02.

Turning to `NC1=NCCN1CC(=O)O`, the relative growth is inactive: 1.02.

On to `C[C@@H]1CN([C@@H](C)CO)C(=O)Cc2cc(NC(=O)Nc3ccc4c(c3)OCO4)ccc2O[C@H]1CN(C)C(=O)Nc1cccc2ccccc12`, for which the relative growth is inactive: 0.993.

With `C[C@H](CO)N1C[C@H](C)[C@H](CN(C)C(=O)Nc2ccc(C(F)(F)F)cc2)Oc2ccc(NC(=O)CCCCCC(=O)Nc3ccccc3N)cc2C1=O`, the relative growth was inactive: 0.925.

As for `Nc1ccc2[nH]c(=S)sc2c1`, the relative growth is inactive: 1.01.

As for `C[C@@H]1CN([C@@H](C)CO)C(=O)Cc2cc(NS(=O)(=O)c3ccc(Cl)cc3)ccc2O[C@@H]1CN(C)C`, the relative growth is inactive: 1.01.

Regarding `COc1ccc(NC(=O)N(C)C[C@@H]2OCCCC[C@@H](C)Oc3ccc(NC(=O)c4ccncc4)cc3C(=O)N([C@H](C)CO)C[C@@H]2C)cc1`, the relative growth was inactive: 0.919.

Take `C[C@@H]1CCCCO[C@H](CN(C)S(=O)(=O)c2cccs2)[C@@H](C)CN([C@@H](C)CO)C(=O)c2cc(NS(=O)(=O)c3ccc(Cl)cc3)ccc2O1`: the relative growth is inactive: 1.03.

In the case of `COc1ccc(NC(=O)N(C)C[C@@H]2OCCCC[C@@H](C)Oc3ccc(NC(=O)Nc4ccc(C(F)(F)F)cc4)cc3C(=O)N([C@H](C)CO)C[C@@H]2C)cc1`, the relative growth is inactive: 1.03.

`Cl.NC(N)=NC(N)=NCCc1ccccc1`: the relative growth is inactive: 1.17.

For the compound `O=C(O)c1cccc(-c2ccccc2)c1`, the relative growth was inactive: 0.978.

Turning to `C[C@@H]1CN([C@@H](C)CO)C(=O)CCCn2nncc2CO[C@H]1CN(C)S(=O)(=O)c1ccc(C#N)cc1`, the relative growth is inactive: 0.984.

With `COc1ccc(S(=O)(=O)N2C[C@@H](O)COC[C@H]3O[C@@H](CC(=O)N[C@@H]4CCN(Cc5ccccc5)C4)CC[C@@H]32)cc1`, the relative growth is inactive: 0.997.

For `C[C@H](CO)N1C[C@H](C)[C@H](CN(C)S(=O)(=O)c2cn(C)cn2)OCCCC[C@H](C)Oc2ccc(NC(=O)c3ccncc3)cc2C1=O`, the relative growth was inactive: 0.966.

As for `C[C@@H]1CCCCO[C@@H](CN(C)S(=O)(=O)c2ccccc2)[C@H](C)CN([C@H](C)CO)C(=O)c2cc(NC(=O)Nc3ccc(F)cc3)ccc2O1`, the relative growth was inactive: 1.03.

For the compound `Cc1cc(-c2ccccc2)nc(SCc2ccccc2)c1C#N`, the relative growth is inactive: 1.

For the compound `COc1ccc(NC(=O)Nc2ccc3c(c2)C(=O)N([C@H](C)CO)C[C@H](C)[C@@H](CN(C)CC2CCCCC2)O3)cc1`, the relative growth was inactive: 1.

Regarding `C[C@@H]1CN([C@@H](C)CO)C(=O)c2cccc(NC(=O)C3CC3)c2O[C@H]1CN(C)Cc1ccc(C(=O)O)cc1`, the relative growth is inactive: 1.04.

In the case of `CCOc1ccc(/C=C/C(=O)Sc2ccc(Cl)cc2)cc1`, the relative growth was inactive: 1.05.

Consider `C[C@H]1CN([C@@H](C)CO)C(=O)Cc2cc(NC(=O)Nc3ccc4c(c3)OCO4)ccc2O[C@H]1CN(C)S(=O)(=O)c1cn(C)cn1`, for which the relative growth was inactive: 0.835.

`C[C@H](CO)N1C[C@H](C)[C@@H](CN(C)S(=O)(=O)c2ccc(F)cc2)Oc2ccc(NC(=O)CCCN(C)C)cc2C1=O`: the relative growth was inactive: 0.998.

Turning to `C[C@@H](NC(=O)C[C@H]1C=C[C@@H](NC(=O)CN2CCOCC2)[C@H](CO)O1)c1ccccc1`, the relative growth was inactive: 0.98.

As to `COc1ccc(NC(=O)N[C@H]2CC[C@H](CCNC(=O)CN3CCOCC3)O[C@H]2CO)cc1`, the relative growth was inactive: 0.971.

As to `Cc1noc(C)c1NC(=O)N(C)C[C@@H]1Oc2ccc(NC(=O)c3ccncc3)cc2CC(=O)N([C@H](C)CO)C[C@H]1C`, the relative growth is inactive: 0.971.

Take `CCCCN(C/C=C/c1ccccc1OC)Cc1ccccc1`: the relative growth was inactive: 0.97.

As for `COc1ccc(S(=O)(=O)N(C)C[C@@H]2OCCCC[C@H](C)Oc3ccc(NC(=O)NC4CCCCC4)cc3C(=O)N([C@@H](C)CO)C[C@H]2C)cc1`, the relative growth is inactive: 1.02.

On to `O=C(C[C@@H]1C[C@@H]2c3cc(NC(=O)Nc4ccc(C(F)(F)F)cc4)ccc3O[C@@H]2[C@@H](CO)O1)NCCc1ccccc1`, for which the relative growth is inactive: 0.986.

With `C[C@@H]1CN([C@@H](C)CO)C(=O)c2c(c3ccccc3n2C)-c2ccccc2CO[C@H]1CN(C)Cc1ccc(Cl)c(Cl)c1`, the relative growth is inactive: 1.07.

Take `COc1cccc(-c2cn(CC[C@H]3CC[C@H](NC(=O)CN(C)C)[C@H](CO)O3)nn2)c1`: the relative growth was inactive: 1.04.

With `C[C@@H]1CN([C@@H](C)CO)C(=O)CCCn2cc(nn2)CO[C@H]1CN(C)S(=O)(=O)c1ccc(-n2cccn2)cc1`, the relative growth was inactive: 0.998.

Regarding `C[C@H]1CCCCO[C@@H](CN(C)S(=O)(=O)c2ccccc2)[C@@H](C)CN([C@@H](C)CO)C(=O)c2cc(NC(=O)Nc3ccccc3)ccc2O1`, the relative growth is inactive: 1.01.

For `CC1NC(=O)C2CCCN2C(=O)C(CC(N)=O)NC(=O)C2CSSCC(N)C(=O)NC3CSSCC(NC1=O)C(=O)NC(C(C)O)C(=O)NCC(=O)NC(C(=O)NC(Cc1ccc(O)cc1)C(=O)O)CSSCC(NC(=O)C(Cc1ccc(O)cc1)NC(=O)C(CCC(=O)O)NC3=O)C(=O)N2` (stereo not given), the relative growth is inactive: 1.03.

Turning to `C[C@@H]1CCCCO[C@H](CN(C)C(=O)Nc2ccc(C(F)(F)F)cc2)[C@@H](C)CN([C@@H](C)CO)C(=O)c2cc(NC(=O)NC3CCCCC3)ccc2O1`, the relative growth is inactive: 1.01.

For `O=C(C[C@@H]1C[C@H]2c3cc(NS(=O)(=O)c4ccc(F)cc4)ccc3O[C@H]2[C@H](CO)O1)NCc1cccnc1`, the relative growth is inactive: 1.01.

On to `NC(=O)N1Cc2nccn2C[C@H](Cn2cncn2)C1`, for which the relative growth is inactive: 0.969.

As for `Cc1ccc(S(=O)(=O)Nc2ccc3c(c2)C(=O)N([C@H](C)CO)C[C@@H](C)[C@@H](CN(C)S(=O)(=O)c2ccc(F)cc2)OCCCC[C@H](C)O3)cc1`, the relative growth is inactive: 1.06.

In the case of `C[C@@H]1CN([C@H](C)CO)C(=O)Cc2cc(NS(=O)(=O)c3cccs3)ccc2O[C@H]1CN(C)CC1CC1`, the relative growth is inactive: 1.03.

Take `O=C(C[C@@H]1C=C[C@@H](NC(=O)Cc2ccccn2)[C@@H](CO)O1)NCCCN1CCOCC1`: the relative growth was inactive: 0.957.

Take `C[C@@H]1CN([C@H](C)CO)C(=O)c2cc(NC(=O)CCC(F)(F)F)ccc2O[C@@H]1CN(C)Cc1ccc(C(=O)Nc2ccccc2N)cc1`: the relative growth was inactive: 1.02.

With `COc1cc(C)c2c(=O)c(-c3ccccc3)coc2c1`, the relative growth is inactive: 1.

Take `O=C(C[C@H]1CC[C@H]2[C@@H](COC[C@H](O)CN2C(=O)Nc2cccc(Cl)c2)O1)NCc1ccccc1F`: the relative growth is inactive: 1.01.

Consider `COCCN1CCC(N(Cc2ccc(-c3ccc(C(F)(F)F)cc3)cc2)C(=O)Cn2c(SCc3cccc(F)c3F)cc(=O)c3ccccc32)CC1`, for which the relative growth was inactive: 0.948.

For the compound `COc1ccc2c3c([nH]c2c1)[C@H](CO)N(C[C@]13CN(CC2CCOCC2)C1)S(=O)(=O)c1cn(cn1)C`, the relative growth was inactive: 0.96.
